# Measurements as given in the supplement of paper PMC5499739.
# The full ranking holds about 16,000 sequences; the median of “Z-score” is about -0.37, and the highest 2% start at about 3.2. The list shows a part of the results.
# Test system: RBM10 RRM1-ZnF (GST-tagged construct)
# Experiment: RNAcompete 7-mer binding Z-score; higher = stronger binding preference
# Protocol: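 RNAcompete: 20 pmol GST-tagged RBM10 RNA-binding constructs were incubated with a designed RNA pool of about 241,000 sequences up to 41 nt (1.5 nmol) on glutathione beads for 30 min at 4 °C and washed. Bound RNAs were identified by microarray hybridisation. Each RNA 7-mer is scored by a one-sided Z-score of its enrichment, computed over probes that contain the 7-mer within longer pool sequences.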
row,Sequence,RNAcompete 7-mer binding Z-score
1,GUAACGU,0.082
2,AUCAGCA,-0.272
3,UCGCCGC,-0.493
4,AGCAAGA,0.043
5,GAGAUCC,-0.321
6,AGAUUAA,-0.0934
7,GGGGGUG,4.02
8,AUCCAGC,-0.769
9,CGGUACC,-0.275
10,AGGUUAA,1.16
11,CAGUUGC,-0.373
12,UCUAAAC,-0.746
13,CAGCCUG,-0.513
14,GUCGCUG,-0.0512
15,GGAAGGA,4.79
16,AGAGAGG,1.27
17,AUCGUCC,-0.854
18,CCCUUAA,-0.75
19,UAUACUC,-0.769
20,AGAAGUU,-0.116
21,CUGUCCG,-0.607
22,CACCAAU,-0.639
23,GUGACCU,-0.509

row,Sequence,RNAcompete 7-mer binding Z-score
1,CGAUUCG,-0.565
2,GGGGAUG,4.52
3,CAAGCGU,-0.418
4,GUCGAGG,1.85
5,AUUGCUG,-0.246
6,UAGUGGC,0.501
7,GCCCUUU,-0.928
8,UUUGCGA,-0.642
9,GCAGCCG,-0.402
10,ACACCCC,-0.165
11,CUGUCGG,-0.305
12,UACGUCU,-0.746
13,AGGGUCG,1.41
14,UUAACUC,-0.821
15,AUGCGUG,0.436
16,AUUCUAG,-0.532
17,CCUUGCA,-0.873
18,ACUGCUU,-0.919
19,CUAAUCU,-0.896
20,GUGAAAG,1.6
21,AUCAUAC,-0.685
22,AGCCCGA,-0.483
23,GUCGCCA,-0.337

row,Sequence,RNAcompete 7-mer binding Z-score
1,UUUUAAC,-0.818
2,AUUGACU,-0.522
3,CCCCUCU,-0.49
4,AAUCCUA,-0.915
5,CCUAUGG,-0.448
6,ACGACCG,-0.633
7,GCAUUGG,0.641
8,CGUGAGU,0.0983
9,UCAUCAA,-0.555
10,UAUAACU,-0.555
11,CGUUCGA,-0.704
12,AUGCAUU,-0.594
13,CGCUAAC,-0.707
14,GUAACCC,-0.259
15,GUGGUCC,0.16
16,CUGCGCU,-0.633
17,UCCAGUA,-0.448
18,AAUCCGA,-0.629
19,CAGACAC,-0.285
20,GGCUCUG,-0.357
21,GCGCAGG,1.5
22,GAGUCUU,-0.422
23,CUGGCUG,0.0853

row,Sequence,RNAcompete 7-mer binding Z-score
1,AUAUCGU,-0.516
2,UCAAGAG,-0.00571
3,AAUAUUA,-0.513
4,ACUCGGA,-0.165
5,CUGUAGU,-0.516
6,UCACGCG,-0.288
7,CAGUCUG,-0.555
8,GGGUGAC,3.04
9,AACUGAG,-0.00571
10,CCAUCUA,-0.782
11,CGCCACG,-0.0804
12,GACGCCA,-0.607
13,UGAGAAU,0.264
14,CCAUGCA,-0.737
15,GUUAGCU,-0.373
16,UGAUACG,0.082
17,UAGGAGG,2.77
18,ACAUAAG,-0.217
19,GCGUUUG,0.131
20,CAAGUUC,-0.753
21,GACGGCA,0.241
22,GGACAGC,0.732
23,GCCGGAU,0.17
